The list shows a part of the results. These are noisy estimates, calculated here from bound and input reads.

The assay addresses T1, Pho4 (S. cerevisiae) (UniProt P07270).
T1 sequence: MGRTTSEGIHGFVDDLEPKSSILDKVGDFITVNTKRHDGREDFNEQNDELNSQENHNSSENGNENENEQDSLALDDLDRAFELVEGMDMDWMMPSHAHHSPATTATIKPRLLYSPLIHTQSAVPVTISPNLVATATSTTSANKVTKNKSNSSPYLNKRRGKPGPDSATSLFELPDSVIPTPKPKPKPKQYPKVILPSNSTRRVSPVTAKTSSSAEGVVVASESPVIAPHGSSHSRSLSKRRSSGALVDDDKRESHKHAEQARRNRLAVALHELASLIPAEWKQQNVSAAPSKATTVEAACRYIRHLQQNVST
The experiment in a line: relative binding free energy (BET-seq); higher = weaker binding. The settings on record: reference: library average.
As for TGTTCCACGTGAGCGT, the “relative binding free energy” value was 0.2 kcal/mol.

For TCTTGCACGTGTTTTA, the “relative binding free energy” value was 0.06 kcal/mol.

For the sequence GTGTGCACGTGGTTCT, the “relative binding free energy” value is 0.02 kcal/mol.

With TGAAACACGTGGATGA, the “relative binding free energy” value is 0.06 kcal/mol. With GTGTGCACGTGACAGT, the “relative binding free energy” value was -0.01 kcal/mol.

Take CGCATCACGTGGTGGG: the “relative binding free energy” value was found to be 0.1 kcal/mol. For the sequence GGTTACACGTGGAGGA, the “relative binding free energy” value was 0.19 kcal/mol. The same measure for TCGGCCACGTGGGGGG: -0.26 kcal/mol; for TTTAACACGTGGGGTT: -0.16 kcal/mol; for TGTCGCACGTGTTTGG: 0 kcal/mol. The same measure for TTGGCCACGTGGAGAG: -0.08 kcal/mol. The figure for TTTGGCACGTGAATGG is 0.2 kcal/mol; for CAAGTCACGTGGGTGG it is -0.07 kcal/mol. ATCAGCACGTGGGATG: the “relative binding free energy” value is -0.23 kcal/mol. The same measure for GTTAGCACGTGTGTCG: 0.02 kcal/mol; for GGTAGCACGTGCTTGT: -0.05 kcal/mol; for AGAAGCACGTGGGAGT: -0.12 kcal/mol. As to CGGGGCACGTGACGTG, the “relative binding free energy” value stood at 0.02 kcal/mol. The figure for CATGACACGTGTGGGA is 0.02 kcal/mol; for ATATACACGTGTTTTA it is -0.05 kcal/mol. The same measure for GGGTACACGTGGAGTT: 0.04 kcal/mol; for CTGTTCACGTGATAGT: 0.27 kcal/mol. The same measure for TACGGCACGTGGTCGG: -0.05 kcal/mol; for TAGGTCACGTGGTCTG: -0.01 kcal/mol; for TCTTTCACGTGACGTT: 0.21 kcal/mol. For the sequence TAGTCCACGTGATTGA, the “relative binding free energy” value was 0.27 kcal/mol. In the case of TATTGCACGTGCTTTT, the “relative binding free energy” value is -0.09 kcal/mol. The figure for GAGGCCACGTGGGGTC is -0.11 kcal/mol; for TTGAACACGTGACGGG it is 0.12 kcal/mol. Turning to GTGGTCACGTGGTCAG, the “relative binding free energy” value amounted to 0.14 kcal/mol. The same measure for GGTTGCACGTGTGGCT: 0.04 kcal/mol; for ATACGCACGTGGGAGG: -0.15 kcal/mol.

As for TGCATCACGTGTGCGT, the “relative binding free energy” value came to 0.16 kcal/mol. The figure for GCGTTCACGTGTGTTC is 0.29 kcal/mol; for GGAATCACGTGCGGTT it is 0.1 kcal/mol. On to TGATTCACGTGGGGTA, for which the “relative binding free energy” value was determined as 0.09 kcal/mol. The figure for GATTGCACGTGAGAGG is 0.28 kcal/mol; for CAGAGCACGTGTGAGT it is 0.08 kcal/mol; for GGCTACACGTGGAGGG it is 0.03 kcal/mol. For GGCAGCACGTGTGGGA, the “relative binding free energy” value is -0.06 kcal/mol.

For CACGTCACGTGGTTGG, the “relative binding free energy” value is -0.01 kcal/mol.

Take TTCGCCACGTGGTTAT: the “relative binding free energy” value was determined as 0.11 kcal/mol.

Consider TTGGGCACGTGCTAAG, for which the “relative binding free energy” value was -0.02 kcal/mol. As to GGCAGCACGTGAATGG, the “relative binding free energy” value was 0.29 kcal/mol.

For GAGAACACGTGTTGGA, the “relative binding free energy” value was 0.12 kcal/mol. The same measure for AGCTACACGTGTAGGT: 0.04 kcal/mol; for TGGCACACGTGTGCGG: 0.08 kcal/mol; for CTAGGCACGTGCGTTG: -0.24 kcal/mol.

Take CTGGTCACGTGGACTG: the “relative binding free energy” value is 0.22 kcal/mol. In the case of AAAATCACGTGGGGAT, the “relative binding free energy” value was found to be 0.1 kcal/mol. The same measure for ATTGTCACGTGCGATA: 0.06 kcal/mol.

As for ATTATCACGTGCTTGT, the “relative binding free energy” value was 0.19 kcal/mol. The figure for CTGAGCACGTGGGTGG is -0.28 kcal/mol; for AAGGCCACGTGGTCGG it is -0.18 kcal/mol. The figure for GTGGTCACGTGTCTTC is 0.23 kcal/mol; for ACTTACACGTGGTGGG it is 0.18 kcal/mol; for AATAACACGTGGGGGT it is -0.09 kcal/mol. The figure for GGAGACACGTGGGTTA is -0.25 kcal/mol; for TGAGACACGTGGAGGT it is 0.01 kcal/mol. For GTTCGCACGTGTGTGT, the “relative binding free energy” value was -0.01 kcal/mol. The figure for GATGACACGTGTTGGA is 0.14 kcal/mol; for CGGTGCACGTGTTAAG it is 0.06 kcal/mol. On to GATAACACGTGGGCGT, for which the “relative binding free energy” value was -0.05 kcal/mol.

For the sequence CTTGTCACGTGGAATG, the “relative binding free energy” value was found to be 0.09 kcal/mol. Regarding TGTGACACGTGCTGGG, the “relative binding free energy” value is -0.06 kcal/mol. The same measure for GTAAGCACGTGTTTAT: -0.1 kcal/mol; for TGTTGCACGTGGTATA: -0.15 kcal/mol. Take GCTTGCACGTGATTTT: the “relative binding free energy” value turned out to be 0.17 kcal/mol. The figure for TAGTGCACGTGATGAG is -0.03 kcal/mol; for TGGACCACGTGTGGAT it is 0.03 kcal/mol. The figure for GGCTTCACGTGGTAGA is 0.22 kcal/mol; for CACATCACGTGTTGGT it is 0.19 kcal/mol.

Consider AATAACACGTGGAGGG, for which the “relative binding free energy” value was 0.02 kcal/mol. The figure for ATTCGCACGTGGGTGT is -0.16 kcal/mol; for GGTAGCACGTGGGTAT it is -0.08 kcal/mol. The figure for GGTAACACGTGATGGG is 0.1 kcal/mol.

GGGATCACGTGCAGGG: the “relative binding free energy” value turned out to be 0.24 kcal/mol. The figure for GGTGTCACGTGATGTC is 0.18 kcal/mol. The figure for CGTAACACGTGTGTAT is 0.03 kcal/mol; for AAGCGCACGTGGAGGG it is -0.05 kcal/mol; for GAGGACACGTGTTGCT it is 0.13 kcal/mol. The figure for GTAGTCACGTGCGTGG is 0.05 kcal/mol; for GGGGCCACGTGGGTGC it is -0.15 kcal/mol. Consider TCTATCACGTGGTATA, for which the “relative binding free energy” value was 0.14 kcal/mol.

With AATGGCACGTGGTCAT, the “relative binding free energy” value is -0.19 kcal/mol. For TAAGGCACGTGTCTGG, the “relative binding free energy” value is -0.06 kcal/mol. The same measure for AGGGCCACGTGCAGGA: -0.05 kcal/mol; for ATGTTCACGTGGTTCA: 0.17 kcal/mol; for GTTAACACGTGTTTTA: 0.01 kcal/mol.

Regarding AGTTGCACGTGCGAAT, the “relative binding free energy” value came to 0.11 kcal/mol. The figure for CAGATCACGTGGTTGT is -0.02 kcal/mol; for TGGTCCACGTGAGAGT it is 0.22 kcal/mol; for GTTGACACGTGCTGTG it is -0.01 kcal/mol. The same measure for ATTGTCACGTGGGAGA: 0.02 kcal/mol. The figure for TATTTCACGTGATCGG is 0.07 kcal/mol. Turning to AGTAGCACGTGAGTTC, the “relative binding free energy” value came out at 0.38 kcal/mol. Consider GCTTTCACGTGATGTG, for which the “relative binding free energy” value was 0.24 kcal/mol. Turning to CATATCACGTGTGAGG, the “relative binding free energy” value was 0.29 kcal/mol.

GCGGACACGTGTGGTG: the “relative binding free energy” value came to 0.2 kcal/mol. The figure for AATCGCACGTGGAGGG is -0.09 kcal/mol.

Turning to AGGTGCACGTGGGCAT, the “relative binding free energy” value was -0.22 kcal/mol. As to AAGAGCACGTGGGGTT, the “relative binding free energy” value was -0.16 kcal/mol. With ATGCGCACGTGGGTGT, the “relative binding free energy” value was -0.31 kcal/mol.

Take ATTCACACGTGGTTTA: the “relative binding free energy” value stood at 0.03 kcal/mol.

Consider AATGTCACGTGGTGTG, for which the “relative binding free energy” value came out at 0.09 kcal/mol. In the case of GTTGACACGTGTGTAA, the “relative binding free energy” value came to 0.16 kcal/mol.

On to AGGAGCACGTGGCGGA, for which the “relative binding free energy” value was -0.12 kcal/mol. The figure for GTAGTCACGTGCGTTT is 0.11 kcal/mol; for GTATACACGTGTTGTT it is 0.08 kcal/mol; for CTAGACACGTGGGGTG it is -0.08 kcal/mol. The figure for TGTATCACGTGGCGAG is 0.03 kcal/mol; for TTGTGCACGTGACATT it is 0.16 kcal/mol. The same measure for GGGACCACGTGTGGTG: 0.03 kcal/mol. For TTAAACACGTGTATTA, the “relative binding free energy” value was -0.06 kcal/mol. The figure for CGAGTCACGTGGTTGT is 0.07 kcal/mol.

The record behind these values is the BET-seq Pho4 binding data (Le et al. 2018).
